Results on 22 molecules are retold here after publication PMC12136788.

Some of the results follow.

B1: chr4:125449804:125449905:+|CDS|ENSG00000196159|msi1|total|mutant (ssRNA)
RNA: GGGAGUUCUACAGUCCGACGAUCAAACAGAUCUUAAAAUACCAAAAUGUCACUGGCUUCAGUAAUGUGAAUAUCAACAGGCACCGUUUUACCGUGACAUCUUCAGAUCGAGGUAAACCUUCCUUAAUCCGUGAGACAACAGUUCAACAGAGGAUUGAGCAUCA
B2: ENSG00000124766:be:win_1451|3pUTR|ENSG00000124766|bound_else_gene|NA|bound_elsewhere_windowed (ssRNA)
RNA: GGGAGUUCUACAGUCCGACGAUCCGGGGGGGGUAGGAGAGGAGAAAAAAAAAGUGAAAAAAAGAAACGAAAAGGACAGACGAAGAGUUUAAAGAGAAAAGGGAAAAAAGAAAGAAAAAGUAAGCAGGGCUGGCUUCGCCCGCGCAACAGAGGAUUGAGCAUCA
B3: chr4:56994692:56994796:+|CDS|ENSG00000047315|unk|FALSE|unique (ssRNA)
RNA: GGGAGUUCUACAGUCCGACGAUCAAAAACAGUCAUUAAAGAAGGUGAAGAACAACUUCAGACUCAGCAUCAGAAAACUUUUAUAGGAAAAAUUCCAAUUAUGUUGCGGUCAACUUACUGCCUUUUGAAUGGCUUGACAGAUCGCAACAGAGGAUUGAGCAUCA
B4: ENSG00000084234:stop:overlap|stop_codon|ENSG00000084234|stop_codon|NA|stop_codon (ssRNA)
RNA: GGGAGUUCUACAGUCCGACGAUCAGAUGCAGAACCAUGGCUAUGAGAACCCCACCUACAAAUACCUGGAGCAGAUGCAGAUUUAGGUGGCAGGGAGCGCGGCAGCCCUGGCGGAGGGAUGCAGGUGGGCCGGAAGAUCCCACGCAACAGAGGAUUGAGCAUCA
B5: chr14:55043969:55044070:+|CDS|ENSG00000180008|unk|FALSE|bound_elsewhere (ssRNA)
RNA: GGGAGUUCUACAGUCCGACGAUCUUUUUACUUCGAGACUCAGCACAGGAAGACUAUUUAUUCUCUGUUAGUUUUAGACGCUAUAGUCGUUCUCUUCAUGCUAGAAUUGAACAGUGGAAUCACAACUUUAGCUUUGAUGCACAUCAACAGAGGAUUGAGCAUCA
B6: chr17:35924603:35924772:-|CDS|ENSG00000278023|control|control|control (ssRNA)
RNA: GGGAGUUCUACAGUCCGACGAUCGGAAAAUGAAGAUAGCAUGGUGCCACUUCCGAAGCAAAGCCUGAAGUUCUUCUGUGCUUUAGAAGUGGUGUUGCCAUCCUGUGAUUGCAGGAGUCCUGGCAUUGGCUUGGUGGAGGAGCCCAACAGAGGAUUGAGCAUCA
B7: chr10:72062367:72062468:-|3pUTR|ENSG00000107742|unk|FALSE|unique (ssRNA)
RNA: GGGAGUUCUACAGUCCGACGAUCCCUUGAUCCACACUGCUCCUGGCAGAGUGAGUCACCCAAAGGCCCCUUCGGCCUCCUUGUAGCUGUUUUCUUUCCUUUUGUUGUUGGUUUUAAAAUACAUUCACACACAAAUACAAAUUGCAACAGAGGAUUGAGCAUCA
B8: chr5:148417036:148417137:+|CDS|ENSG00000145868|unk|total|mutant (ssRNA)
RNA: GGGAGUUCUACAGUCCGACGAUCGGUUGUGCUCGAGUUGGUCUGAGUGCAGGCACAGGAAUUGGUGUUUCAUCAGCUCUUGUCCGCAACCAGAACUCCAACAAUGACGAUAAUAAUGCCCAGAAUAACAAUGCCAACAUCCACCAACAGAGGAUUGAGCAUCA
B9: chr10:50307981:50308148:-|CDS|ENSG00000198964|control|control|control (ssRNA)
RNA: GGGAGUUCUACAGUCCGACGAUCCUGGUGGUAUCACUGGAUUUGCUGGCUUCUCAGCGUAGUUGGAAUCUUCUGUAUUCUCUUAGCGCAUGACCACUACACUGUGGACGUGGUGGUGGCAUAUUACAUCACCACGAGACUCUUCAACAGAGGAUUGAGCAUCA
B10: chr3:194355248:194359297:-|three_prime_utr|ENSG00000172061|control|control|control (ssRNA)
RNA: GGGAGUUCUACAGUCCGACGAUCCUCUUUCUGGCCCCAGAGAAAGGUGAGCCUACCUCUUCCUGACUUGCCUGAUUCUCCCGUAGAGAAGCAGGUCGUGCCGGACCUUCCUACAAUCAGGAAGAUAGAUCCAACUGGCCAUGGCAACAGAGGAUUGAGCAUCA
B11: chr1:215620365:215620495:+|CDS|ENSG00000136636|unk|FALSE|unique (ssRNA)
RNA: GGGAGUUCUACAGUCCGACGAUCGGUUUUUCAGAAUCCAAGAAAAGGUCAUCAGAAGAUGAAAAUGAAAAUAAAAUAGAGUUUAGGAAGAAAGGAGGAUUUGAAGGGGGAGGAUUCCUUGGAAGAAAGAAAGUUCCCUAUCUGCAACAGAGGAUUGAGCAUCA
B12: chr3:179570125:179570235:+|CDS|ENSG00000136518|unk|total|mutant (ssRNA)
RNA: GGGAGUUCUACAGUCCGACGAUCAAGCACAUUAAUGGAAACCGAUGGCGAUAAAGGCAAACAAGGCGGUCCCACCUACUACACCGAUACUAAUGCUCUGCGUGUUCCGAGGGAGAAUAUGGAGGCCAUUUCACCUCUAAAAAACAACAGAGGAUUGAGCAUCA
B13: chr12:132079871:132079972:+|3pUTR|ENSG00000183495|msi1|total|mutant (ssRNA)
RNA: GGGAGUUCUACAGUCCGACGAUCAGAUGCUACCGUUGACCUGAGUUAAAUUCAUUCCGUCGUGUACGUAAAAACUCUCCUUUCCGUGUGUUAUUUUCUUGGCCUUCCCUUUUAAAGGUUAAAGUUUCUAACCUAAGAAUUAAGCAACAGAGGAUUGAGCAUCA
B14: chr7:106091418:106091523:-|3pUTR|ENSG00000008282|msi1|total|mutant (ssRNA)
RNA: GGGAGUUCUACAGUCCGACGAUCUUUACACCUUAAGCCUUAACAUGUAUCUUCAUUCAGAAAACAGUUAUAUUGUCAUACCACCGCCGGAAGAAAAACCUUUAUUUGGAAUAUACACUACUGUAAGUUUGUACAGAUCAUAUACAACAGAGGAUUGAGCAUCA
B15: chr3:130733575:130733676:-|CDS|ENSG00000196455|msi1|FALSE|unique (ssRNA)
RNA: GGGAGUUCUACAGUCCGACGAUCCGUCAAAGAGGUUCCUCGUAAUGAUAUCAAUAUUUAUCCGGAAUACAUUCUGCCAGGCAUAGCCCACUUAGCCCAAGAUGAUGCUACUAUCGUUAGACUAGCCUAUGCUGGUAAGAGUUUCAACAGAGGAUUGAGCAUCA
B16: chr7:92086252:92086353:+|CDS|ENSG00000127914|msi1|FALSE|unique (ssRNA)
RNA: GGGAGUUCUACAGUCCGACGAUCUCAUGAGAGCUUCUCAGACUGGCGAGGUGAACUACUGCUUGCCCUUCAACAAGUUUUCUUAGAAGAGCGUAGUGUUUUACUAGCAGCAUUUCGGACGGAGCUGACAGCUCUAGGUACUACCAACAGAGGAUUGAGCAUCA
B17: chr6:125978377:125978478:+|3pUTR|ENSG00000111911|unk|total|mutant (ssRNA)
RNA: GGGAGUUCUACAGUCCGACGAUCAAUUUUGCCUCUAAUAACAUAAAGGGGGAAGAAACAUAAAGUGGUUCUCUUAAUAAAACCCGCAGAAAAUGUUGCUUUAUGGCAUGUUUUUGUAUCAAAGAGAAAUCAGAGGUUAAACUUCAACAGAGGAUUGAGCAUCA
B18: chr2:40113585:40113686:-|3pUTR|ENSG00000183023|msi1|total|mutant (ssRNA)
RNA: GGGAGUUCUACAGUCCGACGAUCUCAUUUUAUUUUUUUACUUAAAAGGCUAUUUUGAGCCCUGUUUCUUUCACUGUCCAGUCCCGUCCUCUUUGAUUAUAUCAGCCGUUGCUGAGUAAGAAAGAAGCCAGGGUGACCAACGGGCAACAGAGGAUUGAGCAUCA
B19: chr12:30637093:30637194:-|CDS|ENSG00000133704|unk|total|mutant (ssRNA)
RNA: GGGAGUUCUACAGUCCGACGAUCUGUCUACAUUUUUUUUUUCUUCAAAAUUUGCAGGCAUCAUGACCGGAAGAUGUGUAUAACCGGACUGAGUAUCCUUUUGGAAUUGCAAAAUCGACCUCCUGCAGCCGAUGCUGUGGUGGGCAACAGAGGAUUGAGCAUCA
B20: chr3:49657245:49657349:+|CDS|ENSG00000164061|unk|FALSE|unique (ssRNA)
RNA: GGGAGUUCUACAGUCCGACGAUCCAGCCGUAGUGGCAUCAAGAAGCGGCACUCCAUGCCACGCCUGCGGGAUGCCUGUGAGCUAGAGUCUGGGACUGAGCCCUGUGUGGUCAGGAGGAUUGCCGACAGCAGCGUGCAGACAGACAACAGAGGAUUGAGCAUCA
B21: ENSG00000100393:stop:overlap|stop_codon|ENSG00000100393|stop_codon|NA|stop_codon (ssRNA)
RNA: GGGAGUUCUACAGUCCGACGAUCUCAGCACCGAUAACUCAGACUUGAAUUCAAACCUCUCACAGAGUACACUAGACAUACACUAGAGACACCUUGUAGUAUUUUGGGAGCAAAAAAAUUAUUUUCUCUUAACAAGACUUUUUGCAACAGAGGAUUGAGCAUCA
B22: chr7:93926053:93926159:+|CDS|ENSG00000127920|unk|total|mutant (ssRNA)
RNA: GGGAGUUCUACAGUCCGACGAUCGUCUAAAUGUUCUGAAGAAAUAAAGAACUAUAUUGAAGAACGUUCUGGAGAGGAUCCUCCCGUAAAGGGAAUUCCAGAAGACAAGAACCCCUUUAAAGAAAAAGGCAGCUGUGUUAUUUCCAACAGAGGAUUGAGCAUCA

This assay has as its target T1, UNK ZnF1-6 (called full-length) (human, UniProt Q9C0B0 30-357).
T1 sequence: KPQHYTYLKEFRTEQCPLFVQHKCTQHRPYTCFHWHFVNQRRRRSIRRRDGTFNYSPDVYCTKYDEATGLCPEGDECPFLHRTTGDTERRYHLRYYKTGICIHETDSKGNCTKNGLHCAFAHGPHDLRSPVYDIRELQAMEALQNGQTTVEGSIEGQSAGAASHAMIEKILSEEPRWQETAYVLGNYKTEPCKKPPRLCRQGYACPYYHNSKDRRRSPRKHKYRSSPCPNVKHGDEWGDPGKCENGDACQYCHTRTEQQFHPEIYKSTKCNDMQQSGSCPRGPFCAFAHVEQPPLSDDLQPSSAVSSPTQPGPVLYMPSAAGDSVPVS
Nature of the assay: nsRBNS (natural sequence RNA bind-n-seq); RBNS binding buffer (assumed for nsRBNS): 25 mM Tris pH 7.5, 150 mM KCl, 3 mM MgCl2, 0.01% Triton X-100, 500 ug/ml BSA, 20 U/ml SUPERase-In, 4 C; UNK is unkempt and MSI1 is Musashi-1; names of the RNAs are library labels; protein concentration not given here; high values mean tight binding.
For B1, the binding signal is 0.213 enrichment R.

B2 gave a binding signal of 1.3 enrichment R.

As to B3, the binding signal was 0.382 enrichment R.

The molecule B4 yielded a binding signal of 1.19 enrichment R.

The molecule B5 had a binding signal of 1.23 enrichment R.

As for B6, the binding signal stood at 1.03 enrichment R.

B7 yielded a binding signal of 0.749 enrichment R.

The molecule B8 had a binding signal of 0.414 enrichment R.

In the case of B9, the binding signal stood at 0.472 enrichment R.

The molecule B10 returned a binding signal of 0.656 enrichment R.

Molecule B11 came in with a binding signal of 1.23 enrichment R.

For B12, the binding signal is 0.614 enrichment R.

The molecule B13 registered a binding signal of 0.272 enrichment R.

For B14, the binding signal is 0.414 enrichment R.

The molecule B15 gave a binding signal of 1.03 enrichment R.

B16 registered a binding signal of 0.447 enrichment R.

On to B17, for which the binding signal amounted to 0.311 enrichment R.

B18 came in with a binding signal of 0.707 enrichment R.

B19 came in with a binding signal of 0.482 enrichment R.

With B20, the binding signal is 0.768 enrichment R.

As to B21, the binding signal came to 0.684 enrichment R.

The molecule B22 displayed a binding signal of 0.428 enrichment R.
